Assay [1] concerns the target p97-GFP (UniProt P46462). The experiment in a line: co-IP; COS7 cells co-transfected with p97-GFP and HA-GluA1 or HA-GluA2; RIPA lysate; GFP-Trap 1 h at 4 °C.
For assay [2], the target named is HA-GluA1 (UniProt P19490). Briefly: co-IP; COS7 cells co-transfected with equal amounts of p97 and HA-GluA1 plasmids and various amounts of non-tagged GluA2 plasmid; IP with anti-GluA1, blot for p97.
Assay [3] addresses HA-GluA2 (UniProt P19491). The experiment in a line: co-IP; COS7 cells co-transfected with p97 and HA-GluA1, HA-GluA2 or a GluA1 deletion or swap construct; RIPA lysate; IP with anti-GluA1, anti-GluA2 or anti-HA; blot for p97; also after DBeQ (0, 0.1, 1, 10, 50 μM; 30 min) on the cells.
The target in assay [4] is HA-GluA1 (UniProt P19490). The description is as above.
Assay [5] addresses GluA1 subunit of native AMPARs, endogenous (rat (endogenous in hippocampus)) (UniProt P19490). Briefly: co-IP; rat hippocampal homogenates in RIPA buffer, IP with anti-GluA1 or anti-GluA2, protein A-sepharose, 4 °C, washes with 500 mM NaCl; blot with anti-p97.
In assay [6] the target is GluA2 subunit of native AMPARs, endogenous (rat (endogenous in hippocampus)) (UniProt P19491). The assay is described as above.
The target of assay [7] is GluA1 subunit of native AMPARs, endogenous (rat (endogenous in hippocampus)) (UniProt P19490). The experiment in a line: co-IP; cultured rat hippocampal neurons (14 DIV), RIPA lysate, IP with anti-GluA1, blot for p97; cells untreated or treated with glycine (200 μM, 3 min; chemical LTP, time course), NMDA (10 μM, 3 min; chemical LTD) or DBeQ (11 μM, 30 min).

Sequences of proteins named here, by UniProt entry; tags and fusion partners are left off. Residues count along the entry.
UniProt P46462: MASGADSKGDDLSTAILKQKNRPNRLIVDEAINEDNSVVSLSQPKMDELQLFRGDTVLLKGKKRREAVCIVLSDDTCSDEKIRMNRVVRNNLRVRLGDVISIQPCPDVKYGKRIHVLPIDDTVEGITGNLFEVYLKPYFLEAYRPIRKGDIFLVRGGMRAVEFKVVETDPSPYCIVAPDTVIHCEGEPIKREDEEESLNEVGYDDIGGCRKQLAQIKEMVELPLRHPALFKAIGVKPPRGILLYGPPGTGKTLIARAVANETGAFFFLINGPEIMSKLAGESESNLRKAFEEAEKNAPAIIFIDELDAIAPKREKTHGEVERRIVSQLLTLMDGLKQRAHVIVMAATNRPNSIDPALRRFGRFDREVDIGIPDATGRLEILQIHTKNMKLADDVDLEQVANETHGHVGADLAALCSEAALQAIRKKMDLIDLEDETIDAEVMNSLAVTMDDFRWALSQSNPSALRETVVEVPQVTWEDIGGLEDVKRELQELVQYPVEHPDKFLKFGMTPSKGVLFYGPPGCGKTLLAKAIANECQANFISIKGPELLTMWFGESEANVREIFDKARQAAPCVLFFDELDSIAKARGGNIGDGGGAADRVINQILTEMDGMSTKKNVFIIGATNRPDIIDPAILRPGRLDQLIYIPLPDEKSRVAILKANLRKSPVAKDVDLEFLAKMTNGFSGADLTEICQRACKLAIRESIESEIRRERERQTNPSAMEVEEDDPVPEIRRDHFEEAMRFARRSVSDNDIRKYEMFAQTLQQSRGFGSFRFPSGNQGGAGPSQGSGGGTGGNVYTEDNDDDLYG
UniProt P19490, residues 19-907: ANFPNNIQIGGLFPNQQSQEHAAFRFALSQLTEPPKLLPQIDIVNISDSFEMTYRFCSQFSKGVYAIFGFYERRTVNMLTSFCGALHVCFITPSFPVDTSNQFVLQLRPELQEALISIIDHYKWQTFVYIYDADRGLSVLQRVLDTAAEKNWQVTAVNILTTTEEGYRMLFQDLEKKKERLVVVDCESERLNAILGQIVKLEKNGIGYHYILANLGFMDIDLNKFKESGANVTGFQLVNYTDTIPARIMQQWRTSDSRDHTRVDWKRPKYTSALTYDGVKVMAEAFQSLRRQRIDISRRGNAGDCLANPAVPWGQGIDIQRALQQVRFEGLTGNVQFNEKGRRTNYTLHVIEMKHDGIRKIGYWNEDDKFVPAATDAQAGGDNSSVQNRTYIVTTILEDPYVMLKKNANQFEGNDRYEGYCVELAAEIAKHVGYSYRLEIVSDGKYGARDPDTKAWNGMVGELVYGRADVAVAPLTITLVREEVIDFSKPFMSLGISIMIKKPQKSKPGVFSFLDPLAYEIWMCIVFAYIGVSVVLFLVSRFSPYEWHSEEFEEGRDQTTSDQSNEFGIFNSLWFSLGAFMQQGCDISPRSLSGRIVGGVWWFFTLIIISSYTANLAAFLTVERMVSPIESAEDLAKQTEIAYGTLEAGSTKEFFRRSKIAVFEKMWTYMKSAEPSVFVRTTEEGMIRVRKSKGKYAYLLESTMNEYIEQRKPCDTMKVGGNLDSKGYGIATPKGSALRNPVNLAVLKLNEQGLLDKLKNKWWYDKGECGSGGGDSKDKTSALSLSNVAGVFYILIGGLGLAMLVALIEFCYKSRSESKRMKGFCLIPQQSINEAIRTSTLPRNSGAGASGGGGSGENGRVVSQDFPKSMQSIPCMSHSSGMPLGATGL
UniProt P19491, residues 22-883: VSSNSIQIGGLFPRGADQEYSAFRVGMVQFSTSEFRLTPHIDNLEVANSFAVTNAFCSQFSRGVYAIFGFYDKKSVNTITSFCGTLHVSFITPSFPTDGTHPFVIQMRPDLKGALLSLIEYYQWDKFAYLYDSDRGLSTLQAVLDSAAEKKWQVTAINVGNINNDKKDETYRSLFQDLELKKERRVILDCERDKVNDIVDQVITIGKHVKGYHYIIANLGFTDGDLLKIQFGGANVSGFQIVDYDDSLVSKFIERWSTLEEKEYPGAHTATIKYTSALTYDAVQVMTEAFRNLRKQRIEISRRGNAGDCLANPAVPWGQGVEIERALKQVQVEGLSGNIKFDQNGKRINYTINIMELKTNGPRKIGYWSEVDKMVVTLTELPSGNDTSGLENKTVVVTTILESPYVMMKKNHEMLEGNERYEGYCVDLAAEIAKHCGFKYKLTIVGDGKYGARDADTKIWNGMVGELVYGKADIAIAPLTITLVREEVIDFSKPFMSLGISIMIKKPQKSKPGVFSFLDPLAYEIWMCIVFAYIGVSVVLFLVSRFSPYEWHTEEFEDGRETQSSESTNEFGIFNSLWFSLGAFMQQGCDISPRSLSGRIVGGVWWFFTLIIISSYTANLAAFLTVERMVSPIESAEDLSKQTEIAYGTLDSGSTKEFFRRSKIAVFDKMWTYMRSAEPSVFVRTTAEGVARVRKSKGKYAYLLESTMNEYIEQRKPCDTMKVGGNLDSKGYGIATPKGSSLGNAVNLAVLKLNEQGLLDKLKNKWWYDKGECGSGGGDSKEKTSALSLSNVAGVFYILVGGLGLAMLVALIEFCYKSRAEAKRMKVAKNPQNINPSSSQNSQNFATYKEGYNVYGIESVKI

Results are given in words; binding and its absence hold for the method and conditions named. In cells and extracts the contact can be indirect. Some binding calls cover weakened binding; strength is not graded here.

In the case of “HA-GluA1 (from UniProt P19490 19-907) (receptor)”, the binding result in assay [1] is “binds”.

On to “p97 expressed in mammalian cells (pcDNA3.1) (from UniProt P46462 1-806)”, for which the binding result in assay [2] is listed as “binds”; in assay [3], “no binding”; in assay [4], “binds”.

With “HA-GluA2 (from UniProt P19491 22-883) (receptor)”, the binding entry in assay [1] is reported as “no binding”.

In the case of “p97 (valonsin-containing protein), endogenous (from UniProt P46462 1-806)”, the binding result is reported as “binds” in assay [5], “no binding” in assay [6] and “binds” in assay [7].

The record behind these values is PMC6733861.
